The list shows a part of the results. At the low end of the ranking the order means little.
Each sequence was assayed against T1, GST-Rok (full length) (UniProt O34857) (assay: protein binding microarray). Conditions: Rok is a gene silencer of Bacillus subtilis; high values mean tight binding; most listed sequences are background and not binding sites; double strand, one strand shown.
T1 sequence: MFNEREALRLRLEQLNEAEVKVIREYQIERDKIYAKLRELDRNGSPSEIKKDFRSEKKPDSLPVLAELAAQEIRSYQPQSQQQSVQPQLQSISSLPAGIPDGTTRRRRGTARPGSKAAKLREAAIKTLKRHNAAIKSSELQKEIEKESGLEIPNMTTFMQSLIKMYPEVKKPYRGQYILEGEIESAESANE
For CTAACGGA, the binding signal was 0.119 E-score.
With CACTTCGA the binding signal was -0.128 E-score.
Sequence CTTCAGCA has a binding signal of 0.0543 E-score.
ACCAAACC was tested, and the binding signal was 0.00351 E-score.
CTCTTATC was tested, and the binding signal was -0.0673 E-score.
Sequence AACTACCG has a binding signal of 0.417 E-score.
For CGGTTGTA, the binding signal was 0.29 E-score.
With AGCCGAAA the binding signal was 0.113 E-score.
With ATAGGAAA the binding signal was 0.207 E-score.
With AGACCTCT the binding signal was -0.0672 E-score.
ACTTACGC was tested, and the binding signal was 0.0872 E-score.
Sequence GTTAATAA has a binding signal of 0.303 E-score.
AGTGAGTC was tested, and the binding signal was -0.0276 E-score.
Sequence CTGTATGC has a binding signal of -0.104 E-score.
For ACGGCATA, the binding signal was 0.0837 E-score.
AAGCCATA showed a binding signal of -0.0252 E-score.
In the case of CAGGACAA, the binding signal is reported as 0.0361 E-score.
Work on ATAAGTAT yielded a binding signal of 0.231 E-score.
For CCGCAGCG, the binding signal was -0.274 E-score.
For CTATTGAC, the binding signal was 0.183 E-score.
CTATTAGA was tested, and the binding signal was 0.239 E-score.
Sequence CGGTGTTC has a binding signal of -0.0645 E-score.
For CCGCGGCA, the binding signal was -0.15 E-score.
Work on AATATGCT yielded a binding signal of 0.0519 E-score.
Work on ATGAGGGA yielded a binding signal of -0.242 E-score.
Sequence CGCGAAAA has a binding signal of 0.187 E-score.
CAACGTTA was tested, and the binding signal was 0.127 E-score.
CTCATTTA was tested, and the binding signal was -0.143 E-score.
ACGTCTTG was tested, and the binding signal was -0.0198 E-score.
Work on ACCCGTAG yielded a binding signal of -0.0701 E-score.
CCGCCAGG was tested, and the binding signal was -0.416 E-score.
Work on AGGGCATG yielded a binding signal of -0.259 E-score.
CGACCTTC showed a binding signal of -0.238 E-score.
Work on CGGATTAC yielded a binding signal of 0.0502 E-score.
CCGAGTAG was tested, and the binding signal was -0.151 E-score.
Sequence ACTACGCG has a binding signal of 0.248 E-score.
In the case of CCAGAGGG, the binding signal is reported as -0.338 E-score.
AGACCTCC showed a binding signal of -0.292 E-score.
Sequence CAGCTCCG has a binding signal of -0.168 E-score.
CCGGTGTA showed a binding signal of -0.0767 E-score.
Sequence ACAATGTC has a binding signal of -0.0674 E-score.
In the case of ATGAATTC, the binding signal is reported as 0.179 E-score.
Sequence CTCTGGAA has a binding signal of -0.053 E-score.
Work on AGCTGGCG yielded a binding signal of -0.0548 E-score.
In the case of GCAACTAA, the binding signal is reported as 0.228 E-score.
GAGTAGGA gave a binding signal of 0.119 E-score.
With CAGAGTAA the binding signal was 0.0904 E-score.
ATGCTAGA gave a binding signal of 0.239 E-score.
In the case of CATGTTAA, the binding signal is reported as 0.209 E-score.
For CGTATCCC, the binding signal was 0.00794 E-score.
GGACTACC gave a binding signal of -0.104 E-score.
Sequence AGAATAAC has a binding signal of 0.239 E-score.
In the case of AAGATCAT, the binding signal is reported as 0.014 E-score.
GCGTAACA gave a binding signal of 0.167 E-score.
For GAATCAGA, the binding signal was 0.181 E-score.
ACTTTGTA gave a binding signal of 0.226 E-score.
Work on GCGTCTCA yielded a binding signal of -0.21 E-score.
In the case of CAAAACTA, the binding signal is reported as 0.383 E-score.
GCATTTGA showed a binding signal of 0.0429 E-score.
In the case of CCGAATAG, the binding signal is reported as -0.00823 E-score.
ACACTGTA showed a binding signal of 0.173 E-score.
CTCTCTCA was tested, and the binding signal was -0.0746 E-score.
GTCATAAA was tested, and the binding signal was 0.154 E-score.
AATTGCCC was tested, and the binding signal was -0.11 E-score.
With AACCAGTA the binding signal was 0.285 E-score.
Work on CACGTTGC yielded a binding signal of -0.144 E-score.
In the case of CTGCTATC, the binding signal is reported as 0.0933 E-score.
With CTTCTCAC the binding signal was -0.193 E-score.
AAAATTGA gave a binding signal of 0.214 E-score.
Sequence CCGATCCA has a binding signal of 0.0174 E-score.
CCAATAAC showed a binding signal of 0.00293 E-score.
AATGCAAC was tested, and the binding signal was 0.164 E-score.
ATCGTAAT showed a binding signal of 0.213 E-score.
Sequence AGGCACGA has a binding signal of -0.0894 E-score.
Work on CCGTAAGA yielded a binding signal of 0.0085 E-score.
AGCGTACG gave a binding signal of 0.146 E-score.
For GTACCAAC, the binding signal was 0.0142 E-score.
Work on TCCAAACA yielded a binding signal of -0.0748 E-score.
For CGTTCCAA, the binding signal was 0.101 E-score.
Sequence AATACTAT has a binding signal of 0.359 E-score.
In the case of GTATCGGA, the binding signal is reported as -0.205 E-score.
For TCTGTGCA, the binding signal was 0.0704 E-score.
In the case of AATTATCC, the binding signal is reported as 0.185 E-score.
In the case of CGTCATAC, the binding signal is reported as 0.0132 E-score.
In the case of AGCGACAT, the binding signal is reported as 0.0948 E-score.
AAGTATTG was tested, and the binding signal was 0.203 E-score.
AAATTGCG was tested, and the binding signal was 0.0994 E-score.
For TCTACTCA, the binding signal was 0.206 E-score.
With AAAAAGGT the binding signal was 0.0208 E-score.
In the case of AGGTTCAC, the binding signal is reported as -0.189 E-score.
CGGAATAA was tested, and the binding signal was 0.0916 E-score.
With CTTGGCCC the binding signal was -0.312 E-score.
CCGACCAC was tested, and the binding signal was -0.391 E-score.
GTATAGAA gave a binding signal of 0.329 E-score.
CTCCCTCA showed a binding signal of -0.269 E-score.
ATCGCATG showed a binding signal of 0.00366 E-score.
In the case of GTTAGAAC, the binding signal is reported as 0.0808 E-score.
CAGTGAAG was tested, and the binding signal was -0.317 E-score.
CCCGCTAA was tested, and the binding signal was -0.146 E-score.
Work on AAAGCCGG yielded a binding signal of -0.147 E-score.
GCCCCTCC was tested, and the binding signal was -0.32 E-score.
With ACGTTGCG the binding signal was -0.0944 E-score.
AGTGTGCC showed a binding signal of -0.061 E-score.
In the case of GGCTCCAA, the binding signal is reported as -0.281 E-score.
Work on AATGTGAC yielded a binding signal of 0.0254 E-score.
CGGGAGTA showed a binding signal of -0.076 E-score.
TGACATAA gave a binding signal of 0.0752 E-score.
Sequence CCACGCTA has a binding signal of 0.0112 E-score.
Work on GGGCGTAC yielded a binding signal of -0.0506 E-score.
Sequence CGTTTCTA has a binding signal of 0.283 E-score.
CAAACGGA gave a binding signal of 0.0334 E-score.
With ATGCTTAC the binding signal was -0.0838 E-score.
In the case of ACGAAGAC, the binding signal is reported as -0.064 E-score.
ATCTGCAG was tested, and the binding signal was 0.238 E-score.
In the case of GAGGTCCA, the binding signal is reported as -0.0564 E-score.
In the case of CTCATTAA, the binding signal is reported as -0.101 E-score.
GAAAGGTA gave a binding signal of 0.194 E-score.
CTATATCC gave a binding signal of 0.0894 E-score.
For TGGATAAA, the binding signal was 0.0935 E-score.
CTGGGGTC was tested, and the binding signal was -0.366 E-score.
Sequence CACTTTAG has a binding signal of -0.146 E-score.
ATCGGACG was tested, and the binding signal was -0.104 E-score.
With CTTTATGC the binding signal was -0.139 E-score.
Work on ACGCGACT yielded a binding signal of -0.0984 E-score.
Sequence AGACGTAT has a binding signal of 0.133 E-score.
In the case of GCTGGATA, the binding signal is reported as -0.108 E-score.
CGCTGGGA gave a binding signal of -0.324 E-score.
Work on GAACCTCC yielded a binding signal of -0.289 E-score.
Work on GATAAAAA yielded a binding signal of 0.212 E-score.
For TACCGGCA, the binding signal was -0.0258 E-score.
CTCTCCTA showed a binding signal of -0.0294 E-score.
ATAATCTG gave a binding signal of -0.00843 E-score.
With AATTTCAA the binding signal was 0.117 E-score.
AGTGAACC gave a binding signal of -0.281 E-score.
CTATCGAG showed a binding signal of 0.0507 E-score.
CTGTCAGA was tested, and the binding signal was -0.0485 E-score.
ATGAAGTA showed a binding signal of 0.207 E-score.
ACGCAACC was tested, and the binding signal was 0.0646 E-score.
CCGCCTCG gave a binding signal of -0.297 E-score.
With TACAGTAA the binding signal was 0.287 E-score.
In the case of AAGCGCGA, the binding signal is reported as 0.109 E-score.
Work on CACAATTA yielded a binding signal of 0.177 E-score.
Sequence ACCGAGTC has a binding signal of 0.0913 E-score.
CAGTCCAG was tested, and the binding signal was -0.25 E-score.
Sequence CCTAGGAA has a binding signal of -0.0674 E-score.
AGTAATCA was tested, and the binding signal was 0.0154 E-score.
CTCACTTC gave a binding signal of -0.126 E-score.
Sequence TAGTCTCA has a binding signal of -0.115 E-score.
CCGTACCC was tested, and the binding signal was -0.0819 E-score.
Work on AAGACTGG yielded a binding signal of -0.0941 E-score.
Work on CACATGGC yielded a binding signal of 0.0767 E-score.
With ATTGGAGC the binding signal was -0.09 E-score.
For CTAGTTGC, the binding signal was 0.281 E-score.
ATGACATC was tested, and the binding signal was -0.0238 E-score.
Work on GCAGATAA yielded a binding signal of 0.173 E-score.
Sequence AGTTAATC has a binding signal of 0.2 E-score.
CGTGGAAC gave a binding signal of -0.15 E-score.
TAGGGAGA was tested, and the binding signal was -0.229 E-score.
For ACATAGCT, the binding signal was 0.15 E-score.
GGCCTCCC gave a binding signal of -0.446 E-score.
Work on AAATACAA yielded a binding signal of 0.255 E-score.
With AGCAACTA the binding signal was 0.231 E-score.
ACGCTCAG was tested, and the binding signal was -0.0715 E-score.
TCTTTGAA was tested, and the binding signal was -0.0119 E-score.
AATGTCCT was tested, and the binding signal was -0.0926 E-score.
With GGTTGATA the binding signal was 0.118 E-score.
TTGACCAA gave a binding signal of 0.036 E-score.
ACTAATTC gave a binding signal of 0.359 E-score.
AATGTCCG gave a binding signal of -0.0312 E-score.
Work on ACCTTCGC yielded a binding signal of 0.0444 E-score.
Sequence TACGAAGA has a binding signal of 0.222 E-score.
CAAGTCCC gave a binding signal of -0.3 E-score.
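Further: rank score from −0.5 (least bound) to 0.5 (best bound).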
